From paper PMC7819943, “Rice protein-binding microarrays: a tool to detect cis-acting elements near promoter regions in rice”
Some of the results follow.

Molecular target: T1, OsWOX13 (Oryza sativa, UniProt Q5QMM3 1-267)
T1 sequence: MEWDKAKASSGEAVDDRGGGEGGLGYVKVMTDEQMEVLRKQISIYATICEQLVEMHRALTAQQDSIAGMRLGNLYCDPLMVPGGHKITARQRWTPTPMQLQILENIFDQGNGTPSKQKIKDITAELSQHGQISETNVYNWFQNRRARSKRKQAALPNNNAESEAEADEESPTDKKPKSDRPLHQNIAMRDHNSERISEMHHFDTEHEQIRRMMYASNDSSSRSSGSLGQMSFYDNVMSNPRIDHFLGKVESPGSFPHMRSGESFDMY
Experiment: protein-binding microarray (RPBM); PBS, 2% BSA, 51.3 ng/ul salmon testes DNA, 50 uM zinc acetate, 200 nM TF, 25 C, 1 h; high values mean tight binding
Settings: protein: recombinant; tags: N-terminal polyhistidine and DsRed monomer fusion (pET32a); label: CyDye5-dUTP incorporated in the synthesized complementary strand; 3' TTTTT single-stranded linker to array surface; dsDNA, one strand shown
Outline: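 The binding signal is fluorescence intensity per feature, in arbitrary units, read on an Axon 4000B scanner. Polyhistidine- and DsRed-tagged transcription factors (N-terminal fusions) from E. coli BL21-CodonPlus were purified on Ni–NTA and applied at 200 nM for 1 h at 25 °C to a double-stranded, BSA-blocked custom Agilent array in buffer with 50 µM zinc acetate.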

Sequence	binding signal
TCAAACGGATTGAGAGACTCTATAACTTACTTTCCTCTGACGGAGTCACCTAGTGCAG	10400 fluorescence intensity (a.u.)
TTGGTTTTGGATTAATTGGTTCATCATGACCATTACGACACGGAGTCACCTAGTGCAG	13400 fluorescence intensity (a.u.)
GTCCTATTTGACGCTTTGATTAGACAACGCTTTGTCAATTCGGAGTCACCTAGTGCAG	12900 fluorescence intensity (a.u.)
AAGACGGTAATAGACTGTGCGAGTTGAACATGCAACTCTACGGAGTCACCTAGTGCAG	7360 fluorescence intensity (a.u.)
TCCATGATTAGTCATAAAGTGTTACAGTAATCTACATGTGCGGAGTCACCTAGTGCAG	30400 fluorescence intensity (a.u.)
TAACTAATTATTAATTGTTTTCCTATCATTTGATTCATTGCGGAGTCACCTAGTGCAG	53200 fluorescence intensity (a.u.)
TGCAATTTGAGTGATTTTGATGTAGGACACCACCTTGTGACGGAGTCACCTAGTGCAG	9870 fluorescence intensity (a.u.)
ACTACAAATTAATTATATCTCCGTTCTTTTCAGCCTATTCCGGAGTCACCTAGTGCAG	32200 fluorescence intensity (a.u.)
CAACAACTTAATTTGTCATAGAGAGAAAGATTGTAGGCAACGGAGTCACCTAGTGCAG	4500 fluorescence intensity (a.u.)
TCATATGATTAGGATATATCACATCTCATTATATTATATGCGGAGTCACCTAGTGCAG	17800 fluorescence intensity (a.u.)
AGTTGATTTTGTACTCCTAAAATTTACAGTCATTCTTTACCGGAGTCACCTAGTGCAG	11100 fluorescence intensity (a.u.)
GATACTCCAATCATCAATGTACAAGTATAAATACTTCGTTCGGAGTCACCTAGTGCAG	7880 fluorescence intensity (a.u.)
CTTATTACAAAATATAATTATCATTTATTTTATCATTACACGGAGTCACCTAGTGCAG	6650 fluorescence intensity (a.u.)
CTCTGATCAATCTCTCTAGTATCCTCCTGCTCATTTAGCACGGAGTCACCTAGTGCAG	3760 fluorescence intensity (a.u.)
CAGTTCCGATTGACAAGTCACGTTGACAATTCAAGTCAGACGGAGTCACCTAGTGCAG	18200 fluorescence intensity (a.u.)
CAAGCTAATCACTCATGCTAAAAGTTTTGTGTCCATTCTTCGGAGTCACCTAGTGCAG	3710 fluorescence intensity (a.u.)
TAATAATTATAATTAATTACCGGAGTTACTTATTCTAAACCGGAGTCACCTAGTGCAG	60400 fluorescence intensity (a.u.)
CTCCCAATCACTTTCCCCAAACACAGACCCTCTACAGTCCCGGAGTCACCTAGTGCAG	14600 fluorescence intensity (a.u.)
ATTGGAATTTATTAATTAAAATTAGATTTTCTTTTCAAGACGGAGTCACCTAGTGCAG	20800 fluorescence intensity (a.u.)
GTGTTTGATTTGCCTCTCTTAAGAACCACTGTGAAAACATCGGAGTCACCTAGTGCAG	6450 fluorescence intensity (a.u.)
ATAGATAGCCAAATCACAATCATCCAATGCCAAGCAAGGACGGAGTCACCTAGTGCAG	6920 fluorescence intensity (a.u.)

Sequence	binding signal
ATGTTTCGCGCTGGTAATTTACTGTATATATAATAATAATCGGAGTCACCTAGTGCAG	4000 fluorescence intensity (a.u.)
TCGCAATCAGCCAATCAATTCATGCCCATTATTACATATGCGGAGTCACCTAGTGCAG	34100 fluorescence intensity (a.u.)
ATGCGTCGTCTCTGGCGAATTAATTGGCCAGGTCACCAGGCGGAGTCACCTAGTGCAG	4220 fluorescence intensity (a.u.)
ATGTGCCAATATTATTTCAATTAATGGGATCGTTCAGGTCCGGAGTCACCTAGTGCAG	5370 fluorescence intensity (a.u.)
CATGACAGCGTGCTTGGATCAACCGCTTTTGTCTTCTCCACGGAGTCACCTAGTGCAG	3780 fluorescence intensity (a.u.)
ATGATAGATTAAATCAAATTATCATGTTATGGGTATAGCCCGGAGTCACCTAGTGCAG	53200 fluorescence intensity (a.u.)
ACTAATTTTGTCTATTGGATAGCCAGAAAACATGCATCAGCGGAGTCACCTAGTGCAG	21000 fluorescence intensity (a.u.)
ATTCAATTATATCCAACTATTACCAAACATCTTATTAGTTCGGAGTCACCTAGTGCAG	14800 fluorescence intensity (a.u.)
AGCAAATCAAAGAATTCCACATCACACGAAAGACGTTACTCGGAGTCACCTAGTGCAG	3670 fluorescence intensity (a.u.)
AGCCTAATTAGTCCATGATTAGCTATAAGTGCTACATTAACGGAGTCACCTAGTGCAG	47700 fluorescence intensity (a.u.)
GTTATAATTTATTTTCCGCCTTTAACTAGTACAATCTTTTCGGAGTCACCTAGTGCAG	13000 fluorescence intensity (a.u.)
TTTGATTTTCGTCAGCAAGCTATTCGACAAGAGCTCCTTTCGGAGTCACCTAGTGCAG	6920 fluorescence intensity (a.u.)
ACAAATTAAACTGAAAATAGTTATCGCACATTCGCATATACGGAGTCACCTAGTGCAG	12600 fluorescence intensity (a.u.)
TAAATTGACATGATTAATTGAAACCACGCCATTCAGCAATCGGAGTCACCTAGTGCAG	65500 fluorescence intensity (a.u.)
TAGAAGTCAATCATCAGGCATCAGCGAGGTAGCTGCATATCGGAGTCACCTAGTGCAG	7940 fluorescence intensity (a.u.)
GGCTGACAGGCACTATATGTGAGCATCCAAGGAACTTGCGCGGAGTCACCTAGTGCAG	10400 fluorescence intensity (a.u.)
CGGTCATCAATCTCATCAGCTACATCCCAAAGGGGAATCACGGAGTCACCTAGTGCAG	5580 fluorescence intensity (a.u.)
AAGGAGTGACAATTAAGTGAGTGGATGCGACAATGCTGTACGGAGTCACCTAGTGCAG	4530 fluorescence intensity (a.u.)
GAATTGATCAATGCTCATCACTGTCACTTGAGAACAGATGCGGAGTCACCTAGTGCAG	4400 fluorescence intensity (a.u.)
ATTCATAAATTAATTTTCGTTGCTTTCTTCATTTTATTGTCGGAGTCACCTAGTGCAG	25100 fluorescence intensity (a.u.)
AAATTAATGATATATTCACATCGTGAAACAAAGTGATGTTCGGAGTCACCTAGTGCAG	6540 fluorescence intensity (a.u.)

Sequence	binding signal
GATAATTTTGCTGAGTTATGTACTTATGTAACACCTTTTGCGGAGTCACCTAGTGCAG	12100 fluorescence intensity (a.u.)
TCTAAATTTAACTTGCATCACATTAGTTCTGGAAAGAGCACGGAGTCACCTAGTGCAG	12200 fluorescence intensity (a.u.)
CTGTGACTAGTCACGTCCATATCATAAATTAGAGTTGTACCGGAGTCACCTAGTGCAG	3800 fluorescence intensity (a.u.)
CTATCAGAATAAATCAATTGTTAACCATGTATGGAGTATCCGGAGTCACCTAGTGCAG	3580 fluorescence intensity (a.u.)
TATGGTAACAGGCCTGATAGGTTACTTTGTGCATTGAGAACGGAGTCACCTAGTGCAG	4170 fluorescence intensity (a.u.)
GAAATAAATAAACTGGAGTAGTAATAGAGAGATTAGACCACGGAGTCACCTAGTGCAG	5730 fluorescence intensity (a.u.)
CCTGATTTCCTCCTTTCAGTGAAGTGTTAAACCCTAGCTACGGAGTCACCTAGTGCAG	21500 fluorescence intensity (a.u.)
CTGAAAATTATTGAGTTTTCAGATTAAGTGGTGGGTGTGCCGGAGTCACCTAGTGCAG	8550 fluorescence intensity (a.u.)
CATAATTGAGGGGCCCGACTTATTCCCGCACGTGGCCGTACGGAGTCACCTAGTGCAG	41600 fluorescence intensity (a.u.)
GTTCGATGTGACAGGGTGCAAAATTTCGGGGTGGGATCTACGGAGTCACCTAGTGCAG	3610 fluorescence intensity (a.u.)
ACATATAAATACTAAATTATCATTCACAAATCATTTTCATCGGAGTCACCTAGTGCAG	4400 fluorescence intensity (a.u.)
ATATAATGTTGATTGGAGTGCGTGCGAAGAATGTGAGTTTCGGAGTCACCTAGTGCAG	25200 fluorescence intensity (a.u.)
TGAAATAATAATTATTCAAATAATTATACGCTAATGGCTCCGGAGTCACCTAGTGCAG	15700 fluorescence intensity (a.u.)
TATTCTCTATCCAACAAATCAATTAAACATGCCATGACTTCGGAGTCACCTAGTGCAG	5480 fluorescence intensity (a.u.)
CGTACACCAATCACACCGGAGCCCTCTCACCAATGGTTCTCGGAGTCACCTAGTGCAG	9330 fluorescence intensity (a.u.)
GTGTTGATTAAAATTGATGATTAATTACTCTACTGTTTTACGGAGTCACCTAGTGCAG	27100 fluorescence intensity (a.u.)
AACATCAAAATTTAATAGGATTGGCGAAGTGGGCATAGCTCGGAGTCACCTAGTGCAG	4910 fluorescence intensity (a.u.)
GGGGACATAAATCCTGATGATTTCCTCAACTTTGATCTTGCGGAGTCACCTAGTGCAG	3630 fluorescence intensity (a.u.)
GGATGATGCATCGCTGTGATTGCCTTATTGGAGATGAACACGGAGTCACCTAGTGCAG	13500 fluorescence intensity (a.u.)
ATATGCTAAATTATCTGCCTGCATGATCATTGAACGCAATCGGAGTCACCTAGTGCAG	4080 fluorescence intensity (a.u.)
ACGCCCCATCTTAATTATATATAACAGTGAGCTATATTTTCGGAGTCACCTAGTGCAG	5530 fluorescence intensity (a.u.)

Sequence	binding signal
ATTAAAACTTAATTAATCATACGTTAATATCAACTCATTTCGGAGTCACCTAGTGCAG	8390 fluorescence intensity (a.u.)
CCACGTAATCTGATTTGGTTATACAAACGTGTTGCCACACCGGAGTCACCTAGTGCAG	9390 fluorescence intensity (a.u.)
AATGACGGATTAATTAGGCTTAATAAACTCGTCTCGTGGTCGGAGTCACCTAGTGCAG	43200 fluorescence intensity (a.u.)
TTAAAACTCAATTAATCGTACGTTAATAACACCTCGTTTTCGGAGTCACCTAGTGCAG	11900 fluorescence intensity (a.u.)
TGTAATTGACATAAGTAGACATGTGAGCCAGCTTTGGTTGCGGAGTCACCTAGTGCAG	38900 fluorescence intensity (a.u.)
TCTTAGATTAGTGGTTAGTCCGTTCAGAAATCAGACTTGACGGAGTCACCTAGTGCAG	6140 fluorescence intensity (a.u.)
AAACGAATAAATTGAATATTAGTAAGTTGATAAGGTGATACGGAGTCACCTAGTGCAG	13800 fluorescence intensity (a.u.)
TTCCTATTTATTTAACTCAATTTCGTGGGACATACCTAACCGGAGTCACCTAGTGCAG	3530 fluorescence intensity (a.u.)
AGAAATTTTAAAGGATTGGATAGGATTCAATCCTTTGTTTCGGAGTCACCTAGTGCAG	4800 fluorescence intensity (a.u.)
CCCTTAATTAATTAAAACCGGTCACAGTATGTCCTTTAATCGGAGTCACCTAGTGCAG	41300 fluorescence intensity (a.u.)
CAGAGCAGGTTGATTTATTCCCACAATAATCCAAGCTCCACGGAGTCACCTAGTGCAG	3350 fluorescence intensity (a.u.)
CCTCTTGATTTACCCTGTCATATATAAATAAGAAATGCAACGGAGTCACCTAGTGCAG	33800 fluorescence intensity (a.u.)
GATGTCAGCTGTCACCTCAGTAATTACCAAATAAGAACAGCGGAGTCACCTAGTGCAG	5640 fluorescence intensity (a.u.)
GACTACTTGATTTTGTTTATGGTATTTCATCTGAAAATACCGGAGTCACCTAGTGCAG	3850 fluorescence intensity (a.u.)
ATGTAATATGGGTGATTTATACTCTCTCCGTTTCAACTTACGGAGTCACCTAGTGCAG	3850 fluorescence intensity (a.u.)
CGCCCTTTGACCCAACAGCCAACAGGTGGTGTAGTGACTACGGAGTCACCTAGTGCAG	8500 fluorescence intensity (a.u.)
ATTAATTAAGTTTTAATTGTTACAAACTTGACAAATAAATCGGAGTCACCTAGTGCAG	18700 fluorescence intensity (a.u.)
GGAGAGATTGATTAGCGGGAGGAGGAACTCGAGGAGACAGCGGAGTCACCTAGTGCAG	35100 fluorescence intensity (a.u.)
CCTAGTTAATAGTTAGATCTGATTTACGTATATAGAGAAACGGAGTCACCTAGTGCAG	5270 fluorescence intensity (a.u.)
ATAGATGAGATTAGCTGCAGTCCTTTAACGAATTGTACCTCGGAGTCACCTAGTGCAG	13100 fluorescence intensity (a.u.)
GTGCATTTGCTTGTAATAATTGGCATGTAAATGCCCTCTCCGGAGTCACCTAGTGCAG	4140 fluorescence intensity (a.u.)
